Data: PubChem BioAssay AID1345083 (National Center for Advancing Translational Sciences (NCATS), 2018)
“And” between values parts separate entries of the source, which are not always exact repeats. Equal values may be shown once. The campaign covered roughly 94,000 compounds. About 6,200 (6.6%) were called active. This list was built around the results that the source calls inconclusive (neither active nor inactive); the mix of calls is not that of the screen. The call rests on the fitted dose curve; in most records, active means well fitted inhibition curve with a large enough effect; inconclusive means small, poorly fitted or top-dose-only effect; inactive means flat fitted curve, though single readings scatter. Where the call is inconclusive, the potency comes from a doubtful curve fit.

assay: Cytotoxic Profiling in HEK 293 Cell Line of Diverse Libraries Using Quantitative High-Throughput Screening; conditions: HEK 293 viability, ATP luminescence (CellTiter-Glo), 48-72 h; series mostly up to 115 µM; further: nearly all actives have a fitted effect of over 60% in size
In short: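 Pintool-delivered compounds were incubated with HEK 293 cells (250 cells/well) at 37 degree Celsius for 48 or 72 hr. ATP-dependent luminescence (CellTiter-Glo) then reported remaining viable cells.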
Potency means the concentration at half of the fitted maximal effect; tags describe the fitted curve by direction and shape.

SMILES	Potency
O=C1NCc2ccccc2CC12CCN(CCCc1ccccc1)CC2	inconclusive: 79.4 µM [inhibitor, single point]
O=C(NC1CC1)c1ccc2cc[nH]c2n1	inactive
Cc1nn(-c2ccccc2)c2c1C(C1CC1)N(C1CN(C(=O)Cc3ccccn3)C1)C2=O (stereo not drawn)	inconclusive: 56.2 µM [inhibitor, partial curve, poor fit]
O=C(NCC1CCCCC1)C1CCCN(c2ccnc3ccnn23)C1 (stereo not drawn)	inconclusive: 44.7 µM [inhibitor, partial curve, poor fit]
CN1CCN(C(=O)C(C)(C)Oc2nn(CC3CC3)c3ccc(CN4CCCC4)cc23)CC1	inactive
CCc1nc(-c2c3n(c(=O)n(CC(=O)NCc4ccccc4)c2=O)CCCCC3)no1	inactive
Fc1ccc(CN2CCOC[C@H](Oc3ccccc3)C2)cc1	inconclusive: 112 µM [inhibitor, single point]
Cc1cn2nc(C(=O)Nc3ccc4c(c3)OCCO4)cc2c(N(C)Cc2ccccc2)n1	inactive
CC(C)NC(=O)C1CCN(c2nccc(Nc3ccccc3F)n2)CC1	inconclusive: 89.1 µM [inhibitor, single point]
CS(=O)(=O)N[C@@H]1[C@@H](NC(=O)c2cn3ccsc3n2)[C@H]2CCO[C@H]21	inactive
Cc1ccc(-c2cn3cc(C(=O)NCc4ccccn4)nc3s2)cc1	active: 79.4 µM
COCCCn1c(C)cnc1C1CCN(Cc2ccc(F)cc2F)C1 (stereo not drawn)	inactive
Cc1n[nH]c(C)c1CN1CCC2(CC1)CCN(C1CCOCC1)CC2CO (stereo not drawn)	inactive
COc1cccc(CC(=O)N2CCN(c3cc(C(F)(F)F)ncn3)CC2)c1	inconclusive: 70.8 µM [inhibitor, partial curve, poor fit]
CN(C)c1cc(N2CCCC(NC(=O)Cc3cccc(F)c3)C2)ncn1 (stereo not drawn)	inactive
CNC(=O)c1cc(C2CC2)nc2onc(C3CCN(C(=O)C4CCCCC4)C3)c12 (stereo not drawn)	inconclusive: 50.1 µM [inhibitor, partial curve, poor fit]
COc1ccccc1C(=O)NCCNC(=O)c1cccc(-c2ncccc2C#N)c1	inconclusive: 50.1 µM [inhibitor, partial curve, poor fit]
COc1cccc(-c2cccc(C(=O)N3CCN([S+](=O)([O-])c4cccc(C(F)(F)F)c4)CC3)c2)c1	inconclusive: 15.8 µM [inhibitor, full curve, poor fit]
COc1ccc(CC(=O)NC2CCN(c3cc(-c4ccc(OC)cc4)[nH]n3)CC2)cc1	inconclusive: 50.1 µM [inhibitor, partial curve, poor fit]
Nc1ncccc1CN1CC[C@@H]2OCC(=O)N(Cc3c[nH]c4ccccc34)[C@H]2CC1	inconclusive: 79.4 µM [inhibitor, partial curve, poor fit]
COc1ccccc1-c1noc(-c2nnn3c2COC(c2ccc(F)cc2)C3)n1 (stereo not drawn)	inconclusive: 79.4 µM [inhibitor, single point]

SMILES	Potency
CCc1noc(-c2cccn3c(CNC(=O)Cc4ccc(Cl)cc4)nnc23)n1	inconclusive: 89.1 µM [inhibitor, partial curve, poor fit]
CCC1=Nc2cc(C(=O)NCc3ccc(F)cc3)ccc2Sc2ccc(C)cc21	inconclusive: 8.91 µM [inhibitor, full curve, poor fit]
Cc1cc(NC(=O)c2ccc3c(c2)N(C)C2CCCN2C3=O)ccc1Br (stereo not drawn)	inactive
COc1ccc(C(=O)NC2CCN(c3cc(-c4ccc(OC)cc4)[nH]n3)C2)cc1 (stereo not drawn)	inactive
COCCC1(NC(=O)c2ccccc2)CCN(Cc2ccc3[nH]ccc3c2)CC1	inconclusive: 89.1 µM [inhibitor, single point]
O=C(c1ccccc1F)N1CCC(C(=O)N2CCC(N3Cc4ccccc4C3=O)CC2)CC1	inactive and inconclusive: 89.1 µM [inhibitor, single point]
CC(C)c1ccc(CN2CC(COc3ccccc3)C3(C2)CN(C(=O)c2cn[nH]c2)C3)cc1 (stereo not drawn)	inconclusive: 31.6 µM [inhibitor, partial curve, poor fit]
CCC(CC)C(=O)NC[C@@H]1C=C(C)[C@H](Cc2nc3ccc(F)cc3[nH]2)C[C@H]1C(C)C	inconclusive: 141 µM [inhibitor, partial curve, poor fit]
O=C1[C@@H]2C[C@@H](CN2Cc2ccc3c(c2)OCO3)Oc2ccccc2N1Cc1ccccn1	active: 79.4 µM
Cc1csc(NC(=O)C2CC(=O)N(c3n[nH]c4ccccc34)C2)n1 (stereo not drawn)	inactive
Cc1nc(-c2ccc(F)cc2)n(Cc2cccc(F)c2)c(=O)c1CCO	inconclusive: 50.1 µM [inhibitor, partial curve, poor fit]
Nc1ncccc1CN1CCc2c(n(Cc3ccccc3)n(-c3ccccc3)c2=O)C1	inconclusive: 100 µM [inhibitor, partial curve]
CN1CCCN(C(=O)c2ccccc2C(F)(F)F)c2ccccc21	inconclusive: 79.4 µM [inhibitor, partial curve, poor fit]
COc1ccc(-c2cc(-c3ccc(N4CCOCC4)nc3)cn3cncc23)cc1	inconclusive: 79.4 µM [inhibitor, partial curve, poor fit]
O=C(c1ccccc1F)N1CCC2(CC1)CCN(CCc1ccccc1)c1ccccc1O2	inconclusive: 50.1 µM [inhibitor, partial curve, poor fit]
O=c1c2nc(-c3ccc4c(c3)OCO4)ccc2ncn1Cc1ccccn1	inactive
O=C(N[C@H]1CCN2C(=O)c3cc(-c4ccccc4F)ccc3NC(=O)[C@@H]2C1)c1ccc(F)c(Cl)c1	active: 10 µM
O=C(N[C@H]1[C@H](O)[C@H](O)C[C@@H]1c1ccc(C(F)(F)F)nc1)c1nc2ccccc2s1	inactive
CC1=NS(=O)(=O)N(Cc2ccccc2)C=C1C(=O)OCc1nc(Cc2ccccc2C)no1	inconclusive: 44.7 µM [inhibitor, partial curve, poor fit]
CS(=O)(=O)N1CCc2ccc(C(=O)N3CCN(Cc4ccc5c(c4)OCO5)CC3)cc21	inconclusive: 50.1 µM [inhibitor, partial curve, poor fit]
CC(C)c1noc(-c2cn(C3CCCN(C(=O)c4ccco4)C3)nn2)n1 (stereo not drawn)	inconclusive: 35.5 µM [inhibitor, partial curve]

SMILES	Potency
O=C(NCC(=O)N1CCOCC1)c1ccc(-c2cnc3ccccc3c2)cc1	inconclusive: 89.1 µM [inhibitor, single point]
O=c1c2nc(OCc3ccccc3)ccc2ncn1Cc1ccccn1	inactive
O=C(NCCN1CCOCC1)c1ccc(-c2ccc(N3CCCCC3)nc2)cc1	inconclusive: 50.1 µM [inhibitor, partial curve, poor fit]
Cc1noc(C)c1-c1cc2c(cc(C)n2CCN(C)C)c(-c2cccc(O)c2)n1	active: 56.2 µM
Cc1cc(NC(=O)c2cc3n(n2)CC(c2ccc4c(c2)OCO4)OC3)ccc1F (stereo not drawn)	inconclusive: 44.7 µM [inhibitor, partial curve, poor fit]
CC1=C[C@@H](CN(C)CCO)[C@H](C(C)C)C[C@H]1Cc1nnc(-c2ccccc2)o1	inconclusive: 100 µM [inhibitor, partial curve, poor fit]
CCNC(=O)C1CCN(C(=O)N2CC3CC(C2)[C@H]2CCCC(=O)N2C3)CC1 (stereo partly drawn)	inconclusive: 89.1 µM [inhibitor, partial curve, poor fit]
Cc1noc(C)c1[S+](=O)([O-])N1CCCCC12Cc1ccccc1NC2=O (stereo not drawn)	inconclusive: 89.1 µM [inhibitor, single point]
c1ccc(-c2noc(-c3cncnc3NCCc3cccs3)n2)cc1	inconclusive: 89.1 µM [inhibitor, single point]
O=C(C1CN(C2CCCC2)C(=O)N1)N1CCC(c2ccccc2)CC1 (stereo not drawn)	inactive
COc1ccc(-c2ccc3nnc(CNC(=O)c4cccc5[nH]ccc45)n3n2)cc1	inconclusive: 50.1 µM [inhibitor, partial curve, poor fit]
COc1ccc(-c2cc(N3CCC(NC(=O)c4ccc(N(C)C)cc4)CC3)n[nH]2)cc1	inactive
COc1ccc(-c2[nH]ncc2CN2CCCC(C(=O)NCc3ccccc3)CCNC(=O)CC2)cc1 (stereo not drawn)	inactive
CC(=O)N(C1CC1)C1CCOC2(CCN(C(=O)COc3ccc(C)cc3)CC2)C1 (stereo not drawn)	inconclusive: 89.1 µM [inhibitor, single point]
O=C(NC1CCN(c2cc(-c3ccc(Cl)cc3)[nH]n2)CC1)c1ccccc1F	inconclusive: 56.2 µM [inhibitor, partial curve, poor fit]
COCCn1ncc(N2CCCC(CC(=O)NCc3ccc(C)o3)C2)cc1=O (stereo not drawn)	inactive
O=C(NCc1ccccc1)N1CCC(O)(c2csc(CN3CCc4ccccc4C3)n2)CC1	inconclusive: 79.4 µM [inhibitor, partial curve, poor fit]
Cc1ccc(NC(=O)c2cc3c(s2)CN(C2CC2)C3)cc1	inconclusive: 44.7 µM [inhibitor, partial curve, poor fit]
CCOc1cccc(CNC(=O)c2c(OCC3CC3)cc(=O)n3c2CCCCC3)c1	inconclusive: 31.6 µM [inhibitor, full curve]
COc1cccc(N2C(=O)NC(=NC3CCCCC3)C23CCN(CC2CC2)C3)c1 (stereo not drawn)	inconclusive: 56.2 µM [inhibitor, partial curve, poor fit]
CS(=O)(=O)NCCC(=O)N1CC[C@@H]2[C@@H](CCC(=O)N2CCN)C1	inactive
